Test results from publication PMC11911400, “Mechanism of ASF1 engagement by CDAN1” (Nature Communications, 2025).
Residue numbers refer to the chain shown, from its start. No constants are given. Whether binding was seen depends on the method and setting. Binding seen in cells or lysates may run through a third protein. Some results given as binding are weak or reduced against the parent protein; the word gives no strength. For some assays here: Where a sequence is shown, tags or fusion partners need not be part of it.

Experiments:
[1] = target: T1, Strep-tagged CDAN1 (ST-CDAN1), wildtype (human, UniProt Q8IWY9 1-1227); test: pull-down; Strep-Tactin pulldown of transiently transfected ST-CDAN1 variants from Flp-In 293 T-REx lysates; endogenous ASF1A, ASF1B and CDIN1 detected by immunoblotting; IP buffer with 1% Triton X-100, 1 hr at 4 °C
T1 construct: Codanin-1 (CDAN1), human, 1227 residues; cDNA from Horizon Discovery/Dharmacon, its point mutation S421F corrected; same construct used in Expi293 and in Flp-In 293 T-REx cells; dimer by SEC-MALS and cryo-EM; also called Strep-CDAN1; WT CDAN1; source: Expi293, transiently transfected, in lysate and purified in complexes (anti-FLAG, Strep-Tactin); Flp-In 293 T-REx, transiently transfected, in …
T1 sequence: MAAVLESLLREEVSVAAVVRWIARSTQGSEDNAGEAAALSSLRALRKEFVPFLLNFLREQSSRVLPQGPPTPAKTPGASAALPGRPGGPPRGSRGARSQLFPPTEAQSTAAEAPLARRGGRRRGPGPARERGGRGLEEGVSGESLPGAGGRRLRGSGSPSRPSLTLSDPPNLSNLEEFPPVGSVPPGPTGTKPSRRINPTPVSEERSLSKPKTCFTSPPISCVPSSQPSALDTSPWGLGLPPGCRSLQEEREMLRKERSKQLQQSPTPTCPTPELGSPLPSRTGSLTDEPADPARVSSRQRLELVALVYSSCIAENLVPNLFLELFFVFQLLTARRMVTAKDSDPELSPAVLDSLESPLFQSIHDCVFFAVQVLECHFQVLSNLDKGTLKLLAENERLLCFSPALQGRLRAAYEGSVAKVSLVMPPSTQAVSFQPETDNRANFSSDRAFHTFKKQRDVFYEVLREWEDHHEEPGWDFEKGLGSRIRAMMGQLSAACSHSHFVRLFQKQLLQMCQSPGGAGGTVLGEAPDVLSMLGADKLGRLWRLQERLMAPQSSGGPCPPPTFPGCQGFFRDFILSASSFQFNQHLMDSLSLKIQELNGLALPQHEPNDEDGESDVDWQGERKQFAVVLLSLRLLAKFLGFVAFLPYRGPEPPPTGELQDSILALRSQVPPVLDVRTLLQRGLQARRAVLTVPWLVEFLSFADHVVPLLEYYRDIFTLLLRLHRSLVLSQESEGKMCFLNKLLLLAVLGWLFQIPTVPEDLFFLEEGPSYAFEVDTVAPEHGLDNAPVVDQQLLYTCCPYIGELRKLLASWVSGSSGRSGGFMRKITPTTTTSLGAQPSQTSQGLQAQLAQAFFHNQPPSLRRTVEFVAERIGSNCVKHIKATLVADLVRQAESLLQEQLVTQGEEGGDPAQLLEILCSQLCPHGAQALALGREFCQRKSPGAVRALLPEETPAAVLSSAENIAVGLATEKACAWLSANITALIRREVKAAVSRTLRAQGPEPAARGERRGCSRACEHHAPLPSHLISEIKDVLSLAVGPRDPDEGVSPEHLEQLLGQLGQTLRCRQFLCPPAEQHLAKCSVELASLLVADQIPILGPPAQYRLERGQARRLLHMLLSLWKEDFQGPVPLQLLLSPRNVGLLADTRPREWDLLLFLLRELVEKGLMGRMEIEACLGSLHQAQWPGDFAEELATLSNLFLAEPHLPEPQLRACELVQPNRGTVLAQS

[2] = target: T2, Strep-CDAN1 BDA1* HMHA2* BDA2* (three elements mutated) (human) (UniProt Q8IWY9); test: as above
T2 sequence: T1 sequence with S194A, R195A, R196A, R251A, R255A, R258A, M824A, R825A, K826A

- binding [1]: binds
- binding [2]: binds
B1: FLAG-tagged CDIN1 (F-CDIN1) (natural protein, UniProt Q9Y2V0 1-281, looked up)
chain: MILTKAQYDEIAQCLVSVPPTRQSLRKLKQRFPSQSQATLLSIFSQEYQKHIKRTHAKHHTSEAIESYYQRYLNGVVKNGAAPVLLDLANEVDYAPSLMARLILERFLQEHEETPPSKSIINSMLRDPSQIPDGVLANQVYQCIVNDCCYGPLVDCIKHAIGHEHEVLLRDLLLEKNLSFLDEDQLRAKGYDKTPDFILQVPVAVEGHIIHWIESKASFGDECSHHAYLHDQFWSYWNRFGPGLVIYWYGFIQELDCNRERGILLKACFPTNIVTLCHSIA
notes: C15orf41); cDNA synthesized by IDT; source: Expi293, transiently transfected, in lysate and purified in complexes (anti-FLAG, Strep-Tactin); not shown: 3xFLAG, N-terminal, kept
